From article PMC10541192
Results are given in words; binding and its absence hold for the method and conditions named. In cells and extracts the contact can be indirect. Some results given as binding are weak or reduced against the parent protein; the word gives no strength. For some assays here: Where a sequence is shown, tags or fusion partners need not be part of it. Blank lines part the entries; values can stand above or below the molecule they belong to.

Chains of the proteins cited; added tags and fusions are not shown.
UniProt Q15208: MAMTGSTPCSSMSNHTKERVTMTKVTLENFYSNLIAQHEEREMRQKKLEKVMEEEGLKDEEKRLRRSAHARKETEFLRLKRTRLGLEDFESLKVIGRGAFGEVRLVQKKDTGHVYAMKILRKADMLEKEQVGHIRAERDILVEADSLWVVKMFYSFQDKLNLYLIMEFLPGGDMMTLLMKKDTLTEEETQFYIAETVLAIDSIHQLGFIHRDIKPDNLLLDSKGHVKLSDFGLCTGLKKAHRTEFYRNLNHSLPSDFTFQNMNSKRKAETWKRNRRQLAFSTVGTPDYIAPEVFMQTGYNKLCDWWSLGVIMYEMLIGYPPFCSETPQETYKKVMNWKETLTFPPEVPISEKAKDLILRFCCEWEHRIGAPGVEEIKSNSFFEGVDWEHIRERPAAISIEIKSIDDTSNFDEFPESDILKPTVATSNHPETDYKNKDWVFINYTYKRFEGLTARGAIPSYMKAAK
UniProt P49841: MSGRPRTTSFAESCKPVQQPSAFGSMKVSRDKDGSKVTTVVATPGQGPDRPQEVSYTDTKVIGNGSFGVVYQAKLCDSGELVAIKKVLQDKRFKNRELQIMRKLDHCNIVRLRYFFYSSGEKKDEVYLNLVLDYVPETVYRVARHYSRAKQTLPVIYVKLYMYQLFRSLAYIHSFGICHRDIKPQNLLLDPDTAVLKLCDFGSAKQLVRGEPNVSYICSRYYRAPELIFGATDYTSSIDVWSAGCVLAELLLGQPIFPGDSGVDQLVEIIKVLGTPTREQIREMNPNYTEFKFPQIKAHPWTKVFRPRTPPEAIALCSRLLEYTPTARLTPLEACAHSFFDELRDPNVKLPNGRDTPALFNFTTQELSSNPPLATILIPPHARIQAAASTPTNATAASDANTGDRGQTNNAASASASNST

Legend:
FLAG-tagged NLRP12 = target: T1, FLAG-tagged NLRP12 (UniProt P59046); assay: co-IP; HEK293T and HCT116 cells overexpressing FLAG-tagged NLRP12 or GFP, stimulated with Wnt3a; NLRP12 pulled down with an anti-FLAG antibody; IP product immunoblotted
T1 sequence: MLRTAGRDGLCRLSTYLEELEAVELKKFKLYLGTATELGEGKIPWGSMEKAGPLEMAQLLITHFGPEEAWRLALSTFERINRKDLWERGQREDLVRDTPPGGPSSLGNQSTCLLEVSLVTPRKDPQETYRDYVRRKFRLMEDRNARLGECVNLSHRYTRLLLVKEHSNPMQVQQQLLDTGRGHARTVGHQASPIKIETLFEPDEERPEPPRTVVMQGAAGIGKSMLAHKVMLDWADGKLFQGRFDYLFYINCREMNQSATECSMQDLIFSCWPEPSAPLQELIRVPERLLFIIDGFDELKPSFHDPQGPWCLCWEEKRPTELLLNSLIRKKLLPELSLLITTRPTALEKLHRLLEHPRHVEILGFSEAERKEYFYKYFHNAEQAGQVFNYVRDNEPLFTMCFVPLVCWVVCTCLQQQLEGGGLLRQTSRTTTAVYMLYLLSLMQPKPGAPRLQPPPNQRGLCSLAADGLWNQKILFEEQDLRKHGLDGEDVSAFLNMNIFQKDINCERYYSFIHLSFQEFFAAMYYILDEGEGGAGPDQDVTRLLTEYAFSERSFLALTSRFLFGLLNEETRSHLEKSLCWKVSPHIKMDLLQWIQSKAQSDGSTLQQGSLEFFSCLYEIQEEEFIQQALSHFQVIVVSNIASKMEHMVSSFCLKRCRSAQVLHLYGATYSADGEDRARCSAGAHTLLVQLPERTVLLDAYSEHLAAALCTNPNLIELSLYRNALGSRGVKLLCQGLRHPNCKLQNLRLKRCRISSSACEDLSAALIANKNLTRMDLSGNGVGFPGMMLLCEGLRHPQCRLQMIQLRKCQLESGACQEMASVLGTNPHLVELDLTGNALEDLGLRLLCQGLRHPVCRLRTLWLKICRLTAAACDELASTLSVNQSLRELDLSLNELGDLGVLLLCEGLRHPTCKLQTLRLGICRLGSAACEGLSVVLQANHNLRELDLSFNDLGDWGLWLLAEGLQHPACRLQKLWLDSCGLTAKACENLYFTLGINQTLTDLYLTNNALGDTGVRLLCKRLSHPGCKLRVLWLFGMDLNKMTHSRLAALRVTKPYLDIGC

STK38-FLAG = STK38-FLAG (UniProt Q15208); assay: co-IP; GFP-FLAG or STK38-FLAG overexpressed in HEK293T cells, stimulated with Wnt3a; IP of STK38; IP product immunoblotted
[1] = target: STK38 (overexpressed together with NLRP12) (UniProt Q15208); assay: co-IP; NLRP12 and STK38 both overexpressed in HEK293T cells; detected by Western blotting (Supplemental Figure 11A)
STK38-FLAG, Q15208 = assay: co-IP; GFP-FLAG or STK38-FLAG overexpressed in HEK293T cells, stimulated with Wnt3a; IP of STK38; IP product immunoblotted; details: remark: other sources report otherwise

Molecule: STK38 (from UniProt Q15208 1-465)
binding (FLAG-tagged NLRP12): binds

B1: NLRP12 (overexpressed together with STK38) (protein, UniProt P59046 1-1061)
chain: MLRTAGRDGLCRLSTYLEELEAVELKKFKLYLGTATELGEGKIPWGSMEKAGPLEMAQLLITHFGPEEAWRLALSTFERINRKDLWERGQREDLVRDTPPGGPSSLGNQSTCLLEVSLVTPRKDPQETYRDYVRRKFRLMEDRNARLGECVNLSHRYTRLLLVKEHSNPMQVQQQLLDTGRGHARTVGHQASPIKIETLFEPDEERPEPPRTVVMQGAAGIGKSMLAHKVMLDWADGKLFQGRFDYLFYINCREMNQSATECSMQDLIFSCWPEPSAPLQELIRVPERLLFIIDGFDELKPSFHDPQGPWCLCWEEKRPTELLLNSLIRKKLLPELSLLITTRPTALEKLHRLLEHPRHVEILGFSEAERKEYFYKYFHNAEQAGQVFNYVRDNEPLFTMCFVPLVCWVVCTCLQQQLEGGGLLRQTSRTTTAVYMLYLLSLMQPKPGAPRLQPPPNQRGLCSLAADGLWNQKILFEEQDLRKHGLDGEDVSAFLNMNIFQKDINCERYYSFIHLSFQEFFAAMYYILDEGEGGAGPDQDVTRLLTEYAFSERSFLALTSRFLFGLLNEETRSHLEKSLCWKVSPHIKMDLLQWIQSKAQSDGSTLQQGSLEFFSCLYEIQEEEFIQQALSHFQVIVVSNIASKMEHMVSSFCLKRCRSAQVLHLYGATYSADGEDRARCSAGAHTLLVQLPERTVLLDAYSEHLAAALCTNPNLIELSLYRNALGSRGVKLLCQGLRHPNCKLQNLRLKRCRISSSACEDLSAALIANKNLTRMDLSGNGVGFPGMMLLCEGLRHPQCRLQMIQLRKCQLESGACQEMASVLGTNPHLVELDLTGNALEDLGLRLLCQGLRHPVCRLRTLWLKICRLTAAACDELASTLSVNQSLRELDLSLNELGDLGVLLLCEGLRHPTCKLQTLRLGICRLGSAACEGLSVVLQANHNLRELDLSFNDLGDWGLWLLAEGLQHPACRLQKLWLDSCGLTAKACENLYFTLGINQTLTDLYLTNNALGDTGVRLLCKRLSHPGCKLRVLWLFGMDLNKMTHSRLAALRVTKPYLDIGC
binding [1]: binds

B2: NLRP12 (protein, UniProt P59046 1-1061)
chain: MLRTAGRDGLCRLSTYLEELEAVELKKFKLYLGTATELGEGKIPWGSMEKAGPLEMAQLLITHFGPEEAWRLALSTFERINRKDLWERGQREDLVRDTPPGGPSSLGNQSTCLLEVSLVTPRKDPQETYRDYVRRKFRLMEDRNARLGECVNLSHRYTRLLLVKEHSNPMQVQQQLLDTGRGHARTVGHQASPIKIETLFEPDEERPEPPRTVVMQGAAGIGKSMLAHKVMLDWADGKLFQGRFDYLFYINCREMNQSATECSMQDLIFSCWPEPSAPLQELIRVPERLLFIIDGFDELKPSFHDPQGPWCLCWEEKRPTELLLNSLIRKKLLPELSLLITTRPTALEKLHRLLEHPRHVEILGFSEAERKEYFYKYFHNAEQAGQVFNYVRDNEPLFTMCFVPLVCWVVCTCLQQQLEGGGLLRQTSRTTTAVYMLYLLSLMQPKPGAPRLQPPPNQRGLCSLAADGLWNQKILFEEQDLRKHGLDGEDVSAFLNMNIFQKDINCERYYSFIHLSFQEFFAAMYYILDEGEGGAGPDQDVTRLLTEYAFSERSFLALTSRFLFGLLNEETRSHLEKSLCWKVSPHIKMDLLQWIQSKAQSDGSTLQQGSLEFFSCLYEIQEEEFIQQALSHFQVIVVSNIASKMEHMVSSFCLKRCRSAQVLHLYGATYSADGEDRARCSAGAHTLLVQLPERTVLLDAYSEHLAAALCTNPNLIELSLYRNALGSRGVKLLCQGLRHPNCKLQNLRLKRCRISSSACEDLSAALIANKNLTRMDLSGNGVGFPGMMLLCEGLRHPQCRLQMIQLRKCQLESGACQEMASVLGTNPHLVELDLTGNALEDLGLRLLCQGLRHPVCRLRTLWLKICRLTAAACDELASTLSVNQSLRELDLSLNELGDLGVLLLCEGLRHPTCKLQTLRLGICRLGSAACEGLSVVLQANHNLRELDLSFNDLGDWGLWLLAEGLQHPACRLQKLWLDSCGLTAKACENLYFTLGINQTLTDLYLTNNALGDTGVRLLCKRLSHPGCKLRVLWLFGMDLNKMTHSRLAALRVTKPYLDIGC
binding (STK38-FLAG): binds

More lines, now with the values ahead:

binding (STK38-FLAG): binds
Molecule: glycogen synthase kinase 3β (from UniProt P49841 1-420)

binding (STK38-FLAG, Q15208): no binding
B3: β-catenin, P35222 1-781 (protein)
chain: MATQADLMELDMAMEPDRKAAVSHWQQQSYLDSGIHSGATTTAPSLSGKGNPEEEDVDTSQVLYEWEQGFSQSFTQEQVADIDGQYAMTRAQRVRAAMFPETLDEGMQIPSTQFDAAHPTNVQRLAEPSQMLKHAVVNLINYQDDAELATRAIPELTKLLNDEDQVVVNKAAVMVHQLSKKEASRHAIMRSPQMVSAIVRTMQNTNDVETARCTAGTLHNLSHHREGLLAIFKSGGIPALVKMLGSPVDSVLFYAITTLHNLLLHQEGAKMAVRLAGGLQKMVALLNKTNVKFLAITTDCLQILAYGNQESKLIILASGGPQALVNIMRTYTYEKLLWTTSRVLKVLSVCSSNKPAIVEAGGMQALGLHLTDPSQRLVQNCLWTLRNLSDAATKQEGMEGLLGTLVQLLGSDDINVVTCAAGILSNLTCNNYKNKMMVCQVGGIEALVRTVLRAGDREDITEPAICALRHLTSRHQEAEMAQNAVRLHYGLPVVVKLLHPPSHWPLIKATVGLIRNLALCPANHAPLREQGAIPRLVQLLVRAHQDTQRRTSMGGTQQQFVEGVRMEEIVEGCTGALHILARDVHNRIVIRGLNTIPLFVQLLYSPIENIQRVAAGVLCELAQDKEAAEAIEAEGATAPLTELLHSRNEGVATYAAAVLFRMSEDKPQDYKKRLSVELTSSLFRTEPMAWNETADLGLDIGAQGEPLGYRQDDPSYRSFHSGGYGQDALGMDPMMEHEMGGHHPGADYPVDGLPDLGHAQDLMDGLPPGDSNQLAWFDTDL
